# Assay results as given in PubChem BioAssay (Tox21).
# The inconclusive results got no clear call from the source; some entries with a clear call stand among them for comparison. For some of these results: Where the call is inconclusive, the potency comes from a doubtful curve fit. Calls of active or inactive are those of the source. Unless noted, calls come from the whole dose curve; as a rule, active = well fitted curve in the direction sought with a large enough effect in the repeat runs; inconclusive = weak or mixed curves; inactive = no such curve, though single readings can be large; an effect the other way counts as inactive or inconclusive.
# Columns and labels:
# [1] = qHTS assay for small molecule agonists of the p53 signaling pathway (AID 651631; calls by dose curve; note: potency is the fitted concentration of half-maximal effect; nearly all actives have a fitted effect of over 15% in size); details: HCT-116 p53RE-bla reporter, beta-lactamase FRET ratio, 16 h; activation: at 73.3 µM (top of the series) unless noted
# In short: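 Fluorescence intensity from cleaved LiveBLAzer B/G substrate (2 h, room temperature) served as the signal. Beforehand, HCT-116 reporter cells bearing p53 response elements were treated 16 h at 37 °C with DMSO-dissolved compounds.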
# [2] = qHTS assay for small molecule disruptors of the mitochondrial membrane potential (AID 720635); details: HepG2 mitochondrial membrane potential, Mito-MPS dye ratio; ratio activity, negative = MMP loss: at 83.2 µM (top of the series) unless noted; note: potency is the fitted concentration of half-maximal effect; for ratio activity, negative = MMP loss: % is set by controls: 0 for no effect and ±100 for the full control effect
# In short: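 HepG2 cells (2,000/well) attached overnight at 37C, then took compound for 1 hr at 37C, 5% CO2. Mito-MPS dye was added for 30 min; fluorescence was read at 490/535 nm (monomers) and 540/590 nm (aggregates).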
# [3] = target: Glucocorticoid receptor (Homo sapiens) (UniProt P04150); assay: qHTS assay to identify small molecule antagonists of the glucocorticoid receptor (GR) signaling pathway (AID 720692; active = well fitted inhibition curve with a large enough effect in the signal ratio in the repeat runs, not every such curve was filed as active; inconclusive = weak or mixed curves, or effect the other way; inactive = no such curve, though single readings can be large or run the other way; the % refers to the signal ratio; note: potency is the fitted concentration of half-maximal effect); details: GR-bla HeLa, beta-lactamase FRET ratio, dexamethasone-stimulated, 18 h; activity change, negative = inhibition: at 58.5 µM (top of the series) unless noted
# UniProt P04150, sequence (P04150 whole entry, looked up): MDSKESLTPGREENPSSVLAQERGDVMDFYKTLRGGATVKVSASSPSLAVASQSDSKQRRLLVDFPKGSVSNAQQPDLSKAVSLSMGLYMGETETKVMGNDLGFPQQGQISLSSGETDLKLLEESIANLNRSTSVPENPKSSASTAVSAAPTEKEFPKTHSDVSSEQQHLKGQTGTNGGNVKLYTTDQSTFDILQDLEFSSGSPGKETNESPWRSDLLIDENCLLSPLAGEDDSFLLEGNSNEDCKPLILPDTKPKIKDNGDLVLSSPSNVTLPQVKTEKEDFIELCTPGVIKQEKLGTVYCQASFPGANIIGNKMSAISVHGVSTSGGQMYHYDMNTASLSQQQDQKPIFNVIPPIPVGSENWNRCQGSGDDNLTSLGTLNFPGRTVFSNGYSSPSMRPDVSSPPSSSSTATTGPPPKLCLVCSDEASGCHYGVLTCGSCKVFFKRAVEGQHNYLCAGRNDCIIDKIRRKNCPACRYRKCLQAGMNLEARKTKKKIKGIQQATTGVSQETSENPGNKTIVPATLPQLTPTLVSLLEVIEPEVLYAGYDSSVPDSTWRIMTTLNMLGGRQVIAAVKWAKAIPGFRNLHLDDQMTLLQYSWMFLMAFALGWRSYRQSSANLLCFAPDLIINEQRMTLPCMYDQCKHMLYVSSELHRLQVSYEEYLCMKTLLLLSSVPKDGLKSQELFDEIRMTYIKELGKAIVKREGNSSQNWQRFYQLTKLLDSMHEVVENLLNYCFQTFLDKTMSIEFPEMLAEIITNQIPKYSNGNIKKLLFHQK
# In short: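 GR-bla HeLa cells carrying a GRE-driven beta-lactamase reporter received compound after 4 h plating, then dexamethasone (5 nM final). After 18 h at 37C, the FRET substrate was loaded for 2 h at room temperature and fluorescence read.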
# [4] = qHTS assay for identifying genotoxic compounds that show differential cytotoxicity against isogenic chicken DT40 cell lines with known DNA damage response pathways - Rad54/Ku70 mutant cell line (AID 743015); details: DT40 Rad54/Ku70 mutant viability, CellTiter-Glo, 40 h; activity change, negative = cytotoxicity: at 66.8 µM (top of the series) unless noted; note: potency is the fitted concentration of half-maximal effect; nearly all actives have a fitted effect of over 60% in size
# [5] = qHTS assay to identify small molecule antagonists of the androgen receptor (AR) signaling pathway using the MDA cell line - cell viability counter screen (AID 743041; note: nearly all actives have a fitted effect of over 45% in size; note: potency is the fitted concentration of half-maximal effect); details: MDA-kb2 viability, CellTiter-Fluor, 16 h, cells co-treated with R1881 androgen agonist; viability change, negative = cytotoxic: at 70.3 µM (top of the series)
# In short: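 MDA-kb2 AR-luc human breast carcinoma cells (MMTV-luciferase, AR/GR responsive) were treated with compounds plus R1881 agonist for 16 h at 37 °C. Viability was read as CellTiter-Fluor fluorescence in the same wells as the reporter assay.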
# [6] = tested on: thyroid hormone receptor (rat, GH3 cells); assay: qHTS assay to identify small molecule agonists of the thyroid receptor (TR) signaling pathway (AID 743066; calls by dose curve; note: % is set by controls: 0 for no effect and ±100 for the full control effect); details: GH3.TRE-Luc cells, TR agonist luciferase, 24 h; activation: at 83.9 µM (top of the series) unless noted
# [7] = target: Estrogen receptor (Homo sapiens) (UniProt P03372); assay: qHTS assay to identify small molecule antagonists of the estrogen receptor alpha (ER-alpha) signaling pathway (AID 743069; active = well fitted curve in the direction sought with a large enough effect in the signal ratio in the repeat runs, not every such curve was filed as active; inconclusive = weak or mixed curves, or effect the other way; inactive = no such curve, though single readings can be large or run the other way; the % refers to the signal ratio; note: potency is the fitted concentration of half-maximal effect); details: HEK293 ER-alpha-UAS-bla, beta-lactamase ratio, antagonist mode; activity, negative = inhibition: at 69.4 µM (top of the series) unless noted
# UniProt P03372, sequence (P03372 whole entry, looked up): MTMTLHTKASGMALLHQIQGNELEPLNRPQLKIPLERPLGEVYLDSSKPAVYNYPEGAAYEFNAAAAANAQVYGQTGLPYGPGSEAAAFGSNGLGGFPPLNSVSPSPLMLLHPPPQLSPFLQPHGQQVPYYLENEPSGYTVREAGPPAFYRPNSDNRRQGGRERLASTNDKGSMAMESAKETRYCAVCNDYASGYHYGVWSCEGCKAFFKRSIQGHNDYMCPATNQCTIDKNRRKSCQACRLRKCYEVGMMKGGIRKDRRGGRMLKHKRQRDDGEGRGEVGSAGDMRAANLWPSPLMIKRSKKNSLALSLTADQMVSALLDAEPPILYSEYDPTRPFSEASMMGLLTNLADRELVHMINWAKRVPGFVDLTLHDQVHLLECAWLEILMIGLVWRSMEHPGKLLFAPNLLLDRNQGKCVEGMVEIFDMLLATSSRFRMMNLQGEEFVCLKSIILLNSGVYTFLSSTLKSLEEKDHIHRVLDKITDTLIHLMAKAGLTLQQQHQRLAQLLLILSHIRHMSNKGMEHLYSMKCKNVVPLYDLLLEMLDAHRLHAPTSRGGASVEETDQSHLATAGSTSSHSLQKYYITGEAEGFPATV
# In short: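 HEK293 cells stably carrying an ER-alpha-UAS-bla beta-lactamase reporter were pre-cultured overnight in 2% charcoal-stripped FBS medium. Test compounds in DMSO were added together with 17beta-estradiol for 18 hr at 37C. Read-out was fluorescence after 2 hr with LiveBLAzer B/G FRET substrate at room temperature.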
# [8] = qHTS assay to identify small molecule antagonists of the estrogen receptor alpha (ER-alpha) signaling pathway - cell viability counter screen (AID 743074; calls by dose curve; note: potency is the fitted concentration of half-maximal effect; nearly all actives have a fitted effect of over 45% in size)
# [9] = target: Estrogen receptor (Homo sapiens) (UniProt P03372); assay: qHTS assay to identify small molecule agonists of the estrogen receptor alpha (ER-alpha) signaling pathway using the BG1 cell line (AID 743079); details: BG1Luc4E2 cells, ERE-luciferase agonist, 22 h; activation: at 70.3 µM (top of the series) unless noted; note: potency is the fitted concentration of half-maximal effect; nearly all actives have a fitted effect of over 20% in size
# [10] = qHTS assay to identify small molecule antagonists of the estrogen receptor alpha (ER-alpha) signaling pathway using the BG1 cell line (AID 743080; calls by dose curve;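 note: BG1 cells stimulated with 17beta-estradiol alongside compound; potency is the fitted concentration of half-maximal effect; nearly all actives have a fitted effect of over 25% in size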); details: BG1Luc4E2 ERE-luciferase antagonist mode, luminescence; activity change, negative = inhibition: at 70.3 µM (top of the series) unless noted
# In short: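 After 5 days in phenol-red-free 10% charcoal-stripped FBS medium, BG1-Luc-4E2 cells were seeded, left 24 h at 37 C, co-treated with compounds and 17beta-estradiol for 21.5 h, then assayed for viability and luciferase.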
# [11] = qHTS assay to identify small molecule antagonists of the estrogen receptor alpha (ER-alpha) signaling pathway using the BG1 cell line - cell viability counter screen (AID 743081); details: BG1Luc4E2 viability, CellTiter-Fluor, 22 h; activity change, negative = cytotoxicity: at 70.3 µM (top of the series) unless noted;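 note: compound given together with 17beta-estradiol as the ER stimulus; potency is the fitted concentration of half-maximal effect; nearly all actives have a fitted effect of over 45% in size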
# [12] = target: Peroxisome proliferator-activated receptor gamma (Homo sapiens) (UniProt P37231); assay: qHTS assay to identify small molecule agonists of the peroxisome proliferator-activated receptor gamma (PPARg) signaling pathway (AID 743094; active = well fitted activation curve with a large enough effect in the signal ratio in the repeat runs, not every such curve was filed as active; inconclusive = weak or mixed curves, or effect the other way; inactive = no such curve, though single readings can be large or run the other way; the % refers to the signal ratio; note: potency is the fitted concentration of half-maximal effect; for activation: % is set by controls: 0 for no effect and ±100 for the full control effect); details: HEK293H PPARg-UAS-bla, beta-lactamase FRET ratio, 17 h; activation: at 57 µM (top of the series) unless noted
# UniProt P37231, sequence (P37231 whole entry, looked up): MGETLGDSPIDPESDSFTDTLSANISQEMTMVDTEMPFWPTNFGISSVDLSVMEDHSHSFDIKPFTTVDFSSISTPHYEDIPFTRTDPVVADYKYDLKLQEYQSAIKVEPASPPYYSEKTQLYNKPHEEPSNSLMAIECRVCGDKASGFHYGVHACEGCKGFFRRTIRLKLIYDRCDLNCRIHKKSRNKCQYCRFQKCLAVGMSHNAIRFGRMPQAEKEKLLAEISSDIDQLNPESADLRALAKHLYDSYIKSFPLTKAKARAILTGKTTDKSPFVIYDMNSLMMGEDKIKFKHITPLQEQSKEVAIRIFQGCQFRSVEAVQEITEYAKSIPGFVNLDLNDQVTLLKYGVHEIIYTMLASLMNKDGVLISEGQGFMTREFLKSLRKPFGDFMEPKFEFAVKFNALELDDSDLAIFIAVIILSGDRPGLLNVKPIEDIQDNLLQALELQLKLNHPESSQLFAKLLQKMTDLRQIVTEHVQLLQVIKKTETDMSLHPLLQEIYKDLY
# In short: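 GeneBLAzer PPARg UAS-bla HEK293H cells were plated, rested 5 h, then exposed to compounds for 17 h at 37C. Beta-lactamase activity was read by LiveBLAzer B/G FRET substrate fluorescence after 1 h at room temperature.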
# [13] = qHTS assay to identify small molecule phospholipidosis (PLD) inducers (AID 1259344; active = well fitted curve in the direction sought with a large enough effect; inconclusive = small, poorly fitted or top-dose-only effect, or another doubt; inactive = no such curve, though single readings can be large; an effect the other way counts as inactive or inconclusive; note: potency is the fitted concentration of half-maximal effect); details: HepG2 phospholipidosis, LipidTOX Red imaging, 24 h; PLD induction: at 38.3 µM (top of the series) unless noted
# In short: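 HepG2 cells on collagen I, attached 4 h at 37 C, were co-treated with compound and LipidTOX Red dye for 24 h at 37 C, then fixed with paraformaldehyde plus Hoechst 33342 and imaged by high-content microscopy for phospholipid accumulation.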
# [14] = qHTS assay for identifying genotoxic compounds that show differential cytotoxicity against isogenic chicken DT40 cell lines with known DNA damage response pathways - wild type cell line (AID 743012); details: DT40 wild type chicken cells viability, CellTiter-Glo, 40 h; activity change, negative = cytotoxicity: at 68.4 µM (top of the series) unless noted; note: potency is the fitted concentration of half-maximal effect; nearly all actives have a fitted effect of over 60% in size
# In short: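 Wild-type DT40 cells (300/well) exposed to compounds for 40 hours at 37 C/5% CO2. Viability read by CellTiter-Glo luminescence after 30 min at room temperature.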
# [15] = qHTS assay to identify small molecule antagonists of the thyroid receptor (TR) signaling pathway - cell viability counter screen (AID 743064); details: GH3.TRE-Luc viability, CellTiter-Fluor, 24 h; activity change, negative = cytotoxic: at 70.3 µM (top of the series) unless noted; note: nearly all actives have a fitted effect of over 50% in size; note: potency is the fitted concentration of half-maximal effect; for activity change, negative = cytotoxic: % is set by controls: 0 for no effect and ±100 for the full control effect
# In short: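 Same-well viability check: GH3.TRE-Luc cells stimulated with 1 nM T3 alongside test compound for 23.5 h, followed by CellTiter-Fluor fluorescence.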
# [16] = qHTS assay to identify small molecule antagonists of the thyroid receptor (TR) signaling pathway (AID 743065); note: potency is the fitted concentration of half-maximal effect; nearly all actives have a fitted effect of over 55% in size
# In short: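 GH3.TRE-Luc rat pituitary cells carrying two TR response elements driving luciferase were plated for 4 h, given compound plus 1 nM T3 (final), and incubated 23.5 h at 37 C. ONE-Glo luminescence measured reporter inhibition; CellTiter-Fluor fluorescence tracked cytotoxicity.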
# [17] = qHTS assay to identify small molecule antagonists of the androgen receptor (AR) signaling pathway - cell viability counter screen (AID 743033; note: potency is the fitted concentration of half-maximal effect; nearly all actives have a fitted effect of over 45% in size); details: AR-bla HEK293 viability, CellTiter-Glo luminescence, 16 h; activity change, negative = cytotoxicity: at 58.5 µM (top of the series) unless noted
# [18] = qHTS assay to identify aromatase inhibitors - cell viability counter screen (AID 743084); details: MCF-7 aro ERE viability, CellTiter-Fluor, 24 h; activity change, negative = cytotoxicity: at 70.3 µM (top of the series) unless noted;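 note: cells stimulated with testosterone during compound exposure; nearly all actives have a fitted effect of over 55% in size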; note: potency is the fitted concentration of half-maximal effect
# [19] = qHTS assay to identify small molecule that activate the aryl hydrocarbon receptor (AhR) signaling pathway - cell viability counter screen (AID 743086)
# In short: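 HepG2-AhR-luc (HG2L7.5c1) cells, 4000/well, were preincubated 5 h at 37C, exposed to compound in qHTS format for 24 hr at 37C, then given CellTiter-Fluor for 30 min; viability was read as fluorescence in the reporter wells.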
# Tags give direction and shape of the fitted curve or compound fluorescence and quenching.
smiles,measurement,setting,value
C=C1C(=C/C=C2\CCC[C@]3(C)[C@@H]([C@H](C)CCCC(C)(C)O)CC[C@@H]23)C[C@@H](O)C[C@@H]1O,Potency,[1],"inconclusive: 23.7 µM [cytotoxic, partial curve]"
same,Potency,[2],active: 10.6 µM
same,Potency,[3],inconclusive: 26.8 µM [cytotoxic]
same,Potency,[4],active: 10.6 µM
same,Potency,[5],"inconclusive: 33.5 µM [cytotoxic, single point]"
same,activation,[6],inconclusive: -9.15% [phenotype inactive]
same,Potency,[7],"inconclusive: 10.7 µM [rising, full curve]"
same,Potency,[8],active: 23.9 µM
same,Potency,[9],"inconclusive: 29.8 µM [inhibitor, partial curve]"
same,Potency,[10],active: 29.8 µM
same,Potency,[11],active: 2.37 µM
same,activation,[12],inconclusive: -18.3%
same,Potency,[13],"inconclusive: 11.2 µM [activator, single point]"
CC(=O)[C@@]1(O)CC[C@H]2[C@@H]3C=C(Cl)C4=CC(=O)CC[C@]4(C)[C@H]3CC[C@@]21C,Potency,[1],inconclusive: 33.5 µM [activator]
same,Potency,[2],"inconclusive: 3.76 µM [activator, full curve]"
same,Potency,[14],active: 11.9 µM
same,Potency,[15],inactive
same,Potency,[7],"inconclusive: 10.7 µM [fluorescent, partial curve, poor fit]"
same,Potency,[9],active: 29.8 µM
same,Potency,[10],"inconclusive: 26.6 µM [rising, partial curve]"
same,Potency,[11],"inconclusive: 1.19 µM [rising, full curve]"
same,Potency,[12],"inconclusive: 6.01 µM [rising, full curve, poor fit]"
same,Potency,[13],"inconclusive: 14.1 µM [activator, single point]"
O=C(CCCN1CCC(C(=O)c2ccc(F)cc2)CC1)c1ccc(F)cc1,Potency,[2],inactive
same,Potency,[5],inactive
same,Potency,[15],inconclusive: 26.6 µM [cytotoxic]
same,Potency,[16],"inconclusive: 33.5 µM [inhibitor, single point]"
same,Potency,[7],inactive
same,Potency,[12],inactive
same,Potency,[13],"inconclusive: 11.2 µM [activator, partial curve, poor fit]"
CN(C)CC/C=C1/c2ccccc2CSc2ccccc21,Potency,[1],inconclusive: 12.7 µM [activator]
same,Potency,[2],"inconclusive: 4.03 µM [activator, full curve]"
same,Potency,[3],inactive
same,Potency,[17],"inconclusive: 8.11 µM [cytotoxic, partial curve, poor fit]"
same,Potency,[7],inactive
same,Potency,[18],inactive
same,Potency,[19],"inconclusive: 12.7 µM [falling, partial curve, poor fit]"
same,Potency,[13],"inconclusive: 11.2 µM [activator, single point]"
CO/N=C(\C(=O)N[C@@H]1C(=O)N2C(C(=O)O)=CCS[C@H]12)c1csc(N)n1,Potency,[1],"inconclusive: 1.19 µM [activator, single point]"
same,"activity change, negative = inhibition",[3],inconclusive: -3.65%
same,Potency,[13],inactive
CO[C@@H]1[C@@H](O[C@@H]2O[C@H](C)[C@@H](O[C@H]3C[C@@](C)(O)[C@@H](OC(=O)CC(C)C)[C@H](C)O3)[C@H](N(C)C)[C@H]2O)[C@@H](CC=O)C[C@@H](C)C(=O)/C=C/C2OC2C[C@@H](C)OC(=O)C[C@H]1OC(C)=O (some centres undefined),Potency,[1],"inconclusive: 26.6 µM [activator, partial curve, poor fit]"
same,"ratio activity, negative = MMP loss",[2],inconclusive: -16%
same,Potency,[5],"inconclusive: 6.68 µM [cytotoxic, partial curve, poor fit]"
same,Potency,[7],"inconclusive: 15.1 µM [fluorescent, partial curve]"
same,Potency,[9],"inconclusive: 23.7 µM [inhibitor, partial curve]"
same,Potency,[11],"inconclusive: 26.6 µM [cytotoxic, partial curve]"
same,Potency,[18],inconclusive: 11.9 µM [cytotoxic]
same,Potency,[19],"inconclusive: 6.68 µM [falling, partial curve, poor fit]"
same,Potency,[12],"inconclusive: 2.68 µM [rising, full curve, poor fit]"
same,Potency,[13],inactive
COc1ccc2c(c1)OC(C)(C)C(c1ccccc1)C2c1ccc(OCCN2CCCC2)cc1 (centres undefined),Potency,[1],inconclusive: 29.8 µM [cytotoxic]
same,Potency,[2],"inconclusive: 26.6 µM [falling, partial curve, poor fit]"
same,Potency,[3],inconclusive: 26.8 µM [inhibitor]
same,Potency,[14],active: 3.76 µM
same,Potency,[17],"inconclusive: 21.3 µM [cytotoxic, partial curve, poor fit]"
same,Potency,[5],"inconclusive: 33.5 µM [cytotoxic, single point]"
same,Potency,[15],active: 10.6 µM
same,activation,[6],inconclusive: -7.44% [phenotype inactive]
same,Potency,[7],"inconclusive: 23.9 µM [rising, partial curve, poor fit]"
same,Potency,[8],"inconclusive: 16.9 µM [cytotoxic, partial curve, poor fit]"
same,Potency,[19],"inconclusive: 29.8 µM [falling, partial curve, poor fit]"
same,Potency,[12],"inconclusive: 21.3 µM [rising, partial curve, poor fit]"
same,Potency,[13],"inconclusive: 11.2 µM [activator, single point]"
